Source: PubChem BioAssay AID624417 (National Center for Advancing Translational Sciences (NCATS), 2012)
About 6,400 (1.6%) of roughly 410,000 compounds were called active. The shares of active, inactive and inconclusive entries below differ from those in the screen. Calls follow the shape of the dose curve; as a rule, active = well fitted inhibition curve with a large enough effect; inconclusive = small, poorly fitted or top-dose-only effect; inactive = no such curve, though single readings can be large or run the other way. Potencies of inconclusive entries are doubtful fits and often do not repeat.

target: Glucagon-like peptide 1 receptor (Homo sapiens) (UniProt P43220); assay: qHTS of GLP-1 Receptor Inverse Agonists (Inhibition Mode); settings: HEK293 GLP-1R CRE-luciferase, luminescence, 24 h, GLP-1R form is constitutively active; series mostly up to 38.3 µM; also: nearly all actives have a fitted effect of over 55% in size
Method in brief: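 Luminescence readout: a drop in cAMP-driven luciferase signal flags inverse agonism at a constitutively active GLP-1R stably expressed in HEK293. Compound exposure lasted 24 hr at 37 deg C, 5% CO2.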
Potency is read from the fitted curve at half-maximal effect; tags tell the direction and shape of the fitted curve.

UniProt P43220, sequence (P43220 whole entry, looked up): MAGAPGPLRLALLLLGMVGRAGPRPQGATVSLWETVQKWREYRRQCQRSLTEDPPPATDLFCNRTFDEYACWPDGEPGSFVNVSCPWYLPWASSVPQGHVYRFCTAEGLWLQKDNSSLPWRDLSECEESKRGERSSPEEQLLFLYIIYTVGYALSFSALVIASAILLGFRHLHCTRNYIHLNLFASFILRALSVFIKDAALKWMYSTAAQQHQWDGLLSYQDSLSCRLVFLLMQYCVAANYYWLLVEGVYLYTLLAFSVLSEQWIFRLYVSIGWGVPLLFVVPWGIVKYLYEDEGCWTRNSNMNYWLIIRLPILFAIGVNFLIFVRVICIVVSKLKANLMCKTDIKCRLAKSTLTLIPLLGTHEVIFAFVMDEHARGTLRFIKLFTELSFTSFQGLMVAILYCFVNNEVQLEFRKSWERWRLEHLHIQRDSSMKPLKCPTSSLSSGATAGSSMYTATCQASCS

Potency, inconclusive:
COc1ccccc1CNC(=O)c1cc2ccccc2o1 28.2 µM [inhibitor, single point], O=C(CN1CCN(Cc2cccc(F)c2)CC1)Nc1ccccc1F 28.2 µM [inhibitor, single point], Cc1ccccc1-c1nnn(CC(=O)N2CCN(S(=O)(=O)c3ccc(Cl)cc3)CC2)n1 10 µM [inhibitor, partial curve, poor fit], CCC(CC)C(=O)N1CCN(Cc2ccc3c(c2)OCO3)CC1 2.51 µM [inhibitor, full curve, poor fit], Cc1sc2ncnc(N3CCC(C(=O)NNC(=O)COc4ccc(Cl)cc4)CC3)c2c1C 28.2 µM [inhibitor, single point], COc1ccccc1NC(=O)c1cccc(S(=O)(=O)N2CCN(c3ccccc3)CC2)c1 3.16 µM [inhibitor, full curve], CCOc1ccc(NC(=S)Nc2cc(OC)c(Cl)cc2OC)cc1 28.2 µM [inhibitor, single point], Cc1ccc(-c2ccc(CN3C(C(C)C)C(=O)N(Cc4cn(CCC5OCCCO5)nn4)CCS3(=O)=O)cc2)cc1 (configuration not stated) 11.2 µM [inhibitor, single point], Cc1ccc(OCCNC(=O)c2cncc(Br)c2)cc1C 10 µM [inhibitor, partial curve, poor fit], NNC(=O)COc1cccc(Oc2ccccc2)c1 7.08 µM [inhibitor, partial curve], C=C1/C=C(\C)C(C)(O)CC(O)CC(=O)C(O)C(O)C(C)CC(C)OC(=O)/C(C)=C/CC/C=C/C(OC)C(O)CC(C)C1 (configuration not stated) 10 µM [inhibitor, partial curve, poor fit], CC(C)(C)c1ccc(C(=O)N2CCN(CCNC(=O)C(=O)NCc3ccc(Cl)cc3)CC2)cc1 8.91 µM [inhibitor, partial curve, poor fit], CSc1nc(N)nc2c1ncn2CC(=O)N1CCN(c2ccccn2)CC1 11.2 µM [inhibitor, single point], COc1cc(OC)c2c(-c3cccc(-c4cccc(N)c4)c3)cc(=O)oc2c1 2.82 µM [inhibitor, partial curve, poor fit]

Potency, inactive:
Cc1cccc(OC(=O)c2cc(-c3ccc(Cl)cc3)on2)c1C, COc1ccc(NC(=O)CSC2=Nc3ccccc3C3=NC(CCC(=O)NCCc4ccccc4)C(=O)N23)c(OC)c1 (configuration not stated), CCn1cc(C(=O)N2CCN(c3ccc(OC)cc3)CC2)c(=O)c2cc(S(=O)(=O)N(C)C3CCCCC3)ccc21
